{"source": "PubChem BioAssay AID2675", "about": "(National Center for Advancing Translational Sciences (NCATS), 2010)", "note": "The campaign covered roughly 280,000 compounds. About 100 (0.036%) were called active. Inconclusive results, whose numbers are uncertain, are shown with a selection of clear calls. Calls follow the shape of the dose curve; as a rule, active = well fitted inhibition curve with a large enough effect in the signal ratio, with a control signal flat (not every such curve was filed as active); inconclusive = small, poorly fitted or top-dose-only effect, or effect the other way, or a change in a side signal; inactive = no such curve, though single readings can be large or run the other way; the % refers to the signal ratio. Potencies of inconclusive entries are doubtful fits and often do not repeat. A note “side channel” means that the fit belongs to a control or component signal, not to the main read-out. % is scaled to controls: 0 for no effect and ±100 for the full control effect; potency is read from the fitted curve at half-maximal effect; tags tell the direction and shape of the fitted curve or compound fluorescence and quenching.", "data": [{"biological_target": "Muscleblind-like protein 1 (Homo sapiens) (UniProt Q9NR56)", "sequence (Q9NR56 whole entry, looked up)": "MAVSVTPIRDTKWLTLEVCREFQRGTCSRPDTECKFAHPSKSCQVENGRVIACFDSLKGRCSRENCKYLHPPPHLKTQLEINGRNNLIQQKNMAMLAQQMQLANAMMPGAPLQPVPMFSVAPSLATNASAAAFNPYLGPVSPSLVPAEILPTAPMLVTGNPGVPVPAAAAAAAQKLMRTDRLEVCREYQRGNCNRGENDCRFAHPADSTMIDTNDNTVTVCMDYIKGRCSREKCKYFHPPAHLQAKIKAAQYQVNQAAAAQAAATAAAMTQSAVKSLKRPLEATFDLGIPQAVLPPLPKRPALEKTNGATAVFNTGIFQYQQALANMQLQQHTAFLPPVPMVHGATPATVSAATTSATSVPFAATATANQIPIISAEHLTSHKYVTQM", "experiment": "qHTS Assay for Inhibitors of MBNL1-poly(CUG) RNA binding", "conditions": "TR-FRET MBNL1-His/biotin-(CUG)12 binding, 665/545 ratio; activity change, negative = inhibition: at 57.5 µM (top of the series)", "outline": "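MBNL1-His + Biotin-(CUG)12, cpd titration 92 nM–58 uM; Tb anti-His Ab 0.055 ng/ul, SA-XL665 5 nM (final); 60 min RT; ratiometric 665/545 nm, Ex 340 nm; normalized to buffer and full-complex controls.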", "values": [{"smiles": "Cc1ccc2[nH]c3c(N4CCc5ccccc5C4)ncnc3c2c1", "activity change, negative = inhibition": "inactive: 0.844%"}, {"smiles": "CN(Cc1ccon1)Cc1cn(C)nc1-c1cccc(Cl)c1", "Potency": "inconclusive: 25.1 µM [quencher, side channel, partial curve]"}, {"smiles": "O=C(N/N=C/c1cc2c(c([N+](=O)[O-])c1)OCO2)c1ccncc1", "Potency": "inconclusive: 10 µM [quencher, side channel, partial curve]"}, {"smiles": "Cc1ccc2nc(C)c(CN3CCN(c4ccc([N+](=O)[O-])cc4Cl)CC3)n2c1", "Potency": "inconclusive: 8.91 µM [quencher, side channel, partial curve]"}, {"smiles": "CC1CCCN(C(=O)CCCC(=O)N2CCCC(C)C2)C1", "note": "(centres undefined)", "activity change, negative = inhibition": "inactive: -6.75%"}, {"smiles": "Cc1ccc(-c2nc3ncccn3c2Nc2ccccc2C)o1", "Potency": "inconclusive: 35.5 µM [quencher, side channel, single point]"}, {"smiles": "COc1cccc(/C=C2\\N=C3CCCCCN3C2=O)c1", "Potency": "inconclusive: 20 µM [quencher, side channel, partial curve]"}, {"smiles": "N#Cc1c(N)oc(-c2cccs2)c1-c1cccs1", "Potency": "inconclusive: 28.2 µM [quencher, side channel, partial curve]"}, {"smiles": "COc1ccc(/C=C2\\Oc3cc(OCC(=O)N4CC(O)C[C@H]4C(=O)O)ccc3C2=O)cc1OC", "note": "(some centres undefined)", "Potency": "inconclusive: 12.6 µM [quencher, side channel, partial curve]"}, {"smiles": "O=C(c1cc([N+](=O)[O-])cc([N+](=O)[O-])c1)N1CCOCC1", "Potency": "inconclusive: 6.31 µM [quencher, side channel, partial curve]"}, {"smiles": "COc1ccc([N+](=O)[O-])c(OC)c1C(=O)NC(=O)Nc1c(C)cccc1C", "activity change, negative = inhibition": "inactive: 24.8%"}, {"smiles": "O=C(Nc1nccs1)c1cc2c(s1)CCCCC2", "activity change, negative = inhibition": "inactive: -9.21%"}, {"smiles": "COc1ccccc1C(CC(=O)Nc1ccc(Cl)cc1)c1ccc(OC(C)C)cc1", "note": "(centres undefined)", "Potency": "inconclusive: 22.4 µM [fluorescent, side channel, partial curve, poor fit]"}, {"smiles": "CCN1CCN(C2=C(NS(=O)(=O)c3ccccc3)C(=O)c3ccccc3C2=O)CC1", "Potency": "inconclusive: 5.62 µM [quencher, side channel, partial curve]"}, {"smiles": "O=[N+]([O-])c1cccc(S(=O)(=O)N2CCN(c3ccccn3)CC2)c1", "Potency": "inconclusive: 20 µM [quencher, side channel, partial curve]"}, {"smiles": "COc1ccc([N+](=O)[O-])c(S(=O)(=O)c2ccc(Cl)cc2)n1", "Potency": "inconclusive: 31.6 µM [quencher, side channel, single point]"}, {"smiles": "Cc1cc(C)n(-c2nc(NCC(C)O)c3c4c(sc3n2)COC(C)(C)C4)n1", "note": "(centres undefined)", "activity change, negative = inhibition": "inactive: -6.44%"}, {"smiles": "O=C(CN1CCN(CCN2C(=O)c3cccc4cccc(c34)C2=O)CC1)c1ccc(F)cc1", "Potency": "inconclusive: 4.47 µM [quencher, side channel, partial curve]"}, {"smiles": "CCOC(=O)C1CCCN(c2cc(=O)n(-c3ccccc3Cl)c(=O)[nH]2)C1", "note": "(centres undefined)", "Potency": "inconclusive: 0.141 µM [quencher, side channel, full curve, poor fit]"}, {"smiles": "COc1ccc(NC(=O)COC(=O)C2CCCCC2)c([N+](=O)[O-])c1", "Potency": "inconclusive: 15.8 µM [quencher, side channel, single point]"}, {"smiles": "NS(=O)(=O)c1ccc(NC(=O)CSc2ccccn2)cc1", "activity change, negative = inhibition": "inactive: 7.86%"}, {"smiles": "O=C(CS(=O)(=O)c1ccccc1)Nc1nnc(Cc2ccccc2)s1", "activity change, negative = inhibition": "inactive: 3.12%"}, {"smiles": "CC1(C(=O)O)CCC(C(=O)Nc2ccccc2O)C1(C)C", "note": "(centres undefined)", "activity change, negative = inhibition": "inactive: -12.7%"}, {"smiles": "O=C(N/N=C/c1ccc(N2CCOCC2)cc1)c1ccc(NS(=O)(=O)c2cccs2)cc1", "Potency": "inconclusive: 20 µM [quencher, side channel, single point]"}, {"smiles": "O=C(c1cc(C2CC2)on1)N1CCN(c2ccc(F)cc2)CC1", "Potency": "inconclusive: 0.251 µM [quencher, side channel, full curve, poor fit]"}, {"smiles": "O=C1C(c2ccncc2)=C(O)c2ccccc21", "Potency": "inconclusive: 25.1 µM [quencher, partial curve]"}, {"smiles": "O=[N+]([O-])c1ccc(O)c(NC(=S)Nc2ccccc2)c1", "Potency": "inconclusive: 25.1 µM [quencher, side channel, partial curve]"}, {"smiles": "Cc1cccc(NS(=O)(=O)c2cccc([N+](=O)[O-])c2)n1", "Potency": "inconclusive: 15.8 µM [quencher, side channel, partial curve]"}, {"smiles": "CCOc1ccc(NC(=O)CN(C)S(=O)(=O)c2ccc(-c3ccc(=O)[nH]n3)s2)cc1", "Potency": "inconclusive: 20 µM [quencher, side channel, partial curve]"}, {"smiles": "N/C(Cn1nnc(-c2ccccc2)n1)=N\\O", "activity change, negative = inhibition": "inactive: 2.18%"}, {"smiles": "COCCN(CCOC)C(=O)c1ccc(SCc2ccc(C)cc2)c([N+](=O)[O-])c1", "Potency": "inconclusive: 28.2 µM [quencher, side channel, single point]"}, {"smiles": "COC(=O)CCCC1=CC2=C(c3ccccc3)C(=O)C(C)(OC(=O)C3CCCC3)C(=O)C2=CN1CC1CC1", "note": "(centres undefined)", "Potency": "inconclusive: 31.6 µM [quencher, side channel, partial curve]"}, {"smiles": "O=[N+]([O-])c1ccc2nonc2c1Nc1cccc(F)c1", "Potency": "inconclusive: 3.98 µM [quencher, side channel, full curve]"}, {"smiles": "COc1ccc(C(=O)Nc2ccccc2C(=O)NC(Cc2ccc(O)cc2)C(=O)NNC(=O)c2ccncc2)cc1", "note": "(centres undefined)", "activity change, negative = inhibition": "inactive: -3.32%"}, {"smiles": "CC(C)NC(=O)COC(=O)c1cc(=O)[nH]c2ccccc12", "Potency": "inconclusive: 25.1 µM [quencher, side channel, single point]"}, {"smiles": "O=C(COc1ccc(Br)cc1Br)NC(=S)N1CCCc2ccccc21", "activity change, negative = inhibition": "inactive: -0.965%"}, {"smiles": "NC(=O)c1ccc(N2CCN(c3ccccc3O)CC2)c([N+](=O)[O-])c1", "Potency": "inconclusive: 11.2 µM [quencher, side channel, partial curve]"}, {"smiles": "COc1ccc(C(=O)N2CC3(CC(c4cccc([N+](=O)[O-])c4)=NO3)C[C@H]2C(=O)NCC(N)=O)cc1", "note": "(some centres undefined)", "Potency": "inconclusive: 8.91 µM [quencher, side channel, partial curve]"}, {"smiles": "COc1ccc(C(=O)NC(=S)NNC(=O)c2cnccn2)cc1", "activity change, negative = inhibition": "inactive: -21.2%"}]}]}
